According to article PMC4237671 (Anesthesiology, 2014):

Assay: Pharmacokinetics after single bolus followed by 2-h infusion
Settings: n = 4 dogs

Compound	Plasma concentration immediately before the infusion ended	Plasma concentration 300 min after the infusion ended [ng/mL]	Plasma concentration 30 min after the infusion ended [ng/mL]	Plasma concentration 60 min after the infusion ended [ng/mL]	Cmax (parent drug)	t1/2 (parent drug) [h]
CC(c1ccccc1)n1cncc1C(=O)O (stereo not drawn) [Etomidate Metabolite]	1,680 ± 250 ng/ml					
CCOC(=O)c1cncn1[C@H](C)c1ccccc1 [Etomidate, reference compound]	2,050 ± 1,090 ng/ml	37 ± 24				
cyclopropyl-methoxycarbonyl metomidate [CPMM]	3,310 ± 740 ng/ml	15 ± 12	103 ± 56	81 ± 27	3,310 ± 740 ng/ml	1.61 ± 0.642
